Read-outs that look alike come from different tables or passages of the source.

Data on three molecules can be found in patent publication US20250353917A1 (SYSTIMMUNE, published 2025).

Assay [1] deals with T1, His-tagged human EGFR (human, UniProt P00533 fragment, limits assumed).
T1 construct: also called huEGFR
Kind of assay: BLI (Octet), antibody on AHC sensors, His-tagged human EGFR in solution, 1:1 global fit.

Assay [2] addresses T1, His-tagged human EGFR. The assay is described as above. This is another data set of the same source.
In another assay the target is EGFR on BxPC-3 cells (UniProt P00533). Kind of assay: cell-based or functional assay.

B1: SI-55P3 (other)
heavy: EIVMTQSPSTLSASVGDRVIITCRASQSIGTNIHWYQQKPGKAPKLLIYYASESISGIPSRFSGSGSGAEFTLTISSLQPDDFATYYCQQNNNWPTTFGQGTKLTVLGGGGSGGGGSGGGGSGGGGSEVQLVESGGGLVQPGGSLRLSCSVSGFSLTNYGVHWVRQAPGKGLEWVGVIWSGGNTDYNTPFTSRFTISRDTSKNTVYLQMNSLRAEDTAVYYCARALTYYDYEFAYWGQGTLVTVSSGGGGSGGGGSQVQLQESGGRLVQPGEPLSLTCKTSGIDLSSNAIGWVRQAPGKGLEWIGVIFGSGNTYYASWAKGRFTISRSTSTVYLKMNSLRSEDTAIYYCARGGYSSDIWGQGTLVTVSSASTKGPSVFPLAPSSKSTSGGTAALGCLVKDYFPEPVTVSWNSGALTSGVHTFPAVLQSSGLYSLSSVVTVPSSSLGTQTYICNVNHKPSNTKVDKRV[human IgG1 Fc with changes left out here]GGGGSGGGGSEVQLLESGGGLVQPGGSLRLSCAASGFSFSSGYDMCWVRQAPGKGLEWIACIAAGSAGITYDANWAKGRFTISRDNSKNTLYLQMNSLRAEDTAVYYCARSAFSFDYAMDLWGQGTLVTVSSGGGGSGGGGSGGGGSGGGGSDIQMTQSPSTLSASVGDRVTITCQASQSISSHLNWYQQKPGKAPKLLIYKASTLASGVPSRFSGSGSGTEFTLTISSLQPDDFATYYCQQGYSWGNVDNVFGGGTKVEIKGGGGSGGGGSGRSLVESGGGLVQPGGSLRLSCTASGFTISSYHMQWVRQAPGKGLEYIGTISSGGNVYYASSARGRFTISRPSSKNTVDLQMNSLRAEDTAVYYCARDSGYSDPMWGQGTLVTVSSGGGGSGGGGSGGGGSGGGGSDVVMTQSPSSVSASVGDRVTITCQASQNIRTYLSWYQQKPGKAPKLLIYAAANLASGVPSRFSGSGSGTDFTLTISDLEPGDAATYYCQSTYLGTDYVGGAFGGGTKVEIK
light: ENVLTQSPASLSASPGERVTITCSASSSVSYMHWYQQKPGQAPKLWIYDTSKLASGVPSRFSGSGSGNDHTLTISSMEPEDFATYYCFQGSVYPFTFGQGTKVTVLGGGGSGGGGSGGGGSGGGGSQVTLKESGPGLVQPGQTLRLTCAFSGFSLSTSGMGVGWIRQPPGKGLEWLAHIWWDDDKRYNPALKSRLTISKDTSKNQVYLQMNSLDAEDTAVYYCARMELWSYYFDYWGQGTLVTVSSGGGGSGGGGSDPVLTQSPSSLSASVGDRVTISCQSSQSVAKNNNLAWFQQKPGQAPKLLIYSASTLAAGVPSRFSGSGSGTDFTLTISSVQPEDFATYYCSARDSGNIQSFGGGTKVEIKRTVAAPSVFIFPPSDEQLKSGTASVVCLLNNFYPREAKVQWKVDNALQSGNSQESVTEQDSKDSTYSLSSTLTLSKADYEKHKVYACEVTHQGLSSPVTKSFNRGEC
notes: Penta-specific GNC antibody: αEGFR H1 scFv (D1), αCD3 (D2 Fab), αPD-L1 (D3), α4-1BB (D4), αCD19 (D6); also called penta-GNC antibody, H1 scFv
Take B1: in the assay with His-tagged human EGFR [1], the equilibrium dissociation constant (Kd) turned out to be 18.1 nM. Moreover, in the assay with His-tagged human EGFR [2], binding was characterised by a dissociation constant (Kd) of 18.1 nM, the koff came to 0.0109 s⁻¹ and the on-rate (kon) is 601000 M⁻¹ s⁻¹.

B2: SI-79P2 (other)
heavy: EIVLTQSPSTLSVSPGERATFSCRASQSIGTNIHWYQQKPGKPPRLLIKYASESISGIPDRFSGSGSGTEFTLTISSVQSEDFAVYYCQQNNNWPTTFGPGTKLELKGGGGSGGGGSGGGGSGGGGSQVQLQQSGPGLVKPSETLSITCTVSGFSLTNYGVHWIRQAPGKGLEWLGVIWSGGNTDYNTPFTSRFTITKDNSKNQVYFKLRSVRADDTAIYYCARALTYYDYEFAYWGQGTLVTVSSGGGGSGGGGSQVQLQESGGRLVQPGEPLSLTCKTSGIDLSSNAIGWVRQAPGKGLEWIGVIFGSGNTYYASWAKGRFTISRSTSTVYLKMNSLRSEDTAIYYCARGGYSSDIWGQGTLVTVSSASTKGPSVFPLAPSSKSTSGGTAALGCLVKDYFPEPVTVSWNSGALTSGVHTFPAVLQSSGLYSLSSVVTVPSSSLGTQTYICNVNHKPSNTKVDKRV[human IgG1 Fc with changes left out here]GGGGSGGGGSEVQLLESGGGLVQPGGSLRLSCAASGFSFSSGYDMCWVRQAPGKGLEWIACIAAGSAGITYDANWAKGRFTISRDNSKNTLYLQMNSLRAEDTAVYYCARSAFSFDYAMDLWGQGTLVTVSSGGGGSGGGGSGGGGSGGGGSDIQMTQSPSTLSASVGDRVTITCQASQSISSHLNWYQQKPGKAPKLLIYKASTLASGVPSRFSGSGSGTEFTLTISSLQPDDFATYYCQQGYSWGNVDNVFGGGTKVEIKGGGGSGGGGSGRSLVESGGGLVQPGGSLRLSCTASGFTISSYHMQWVRQAPGKGLEYIGTISSGGNVYYASSARGRFTISRPSSKNTVDLQMNSLRAEDTAVYYCARDSGYSDPMWGQGTLVTVSSGGGGSGGGGSGGGGSGGGGSDVVMTQSPSSVSASVGDRVTITCQASQNIRTYLSWYQQKPGKAPKLLIYAAANLASGVPSRFSGSGSGTDFTLTISDLEPGDAATYYCQSTYLGTDYVGGAFGGGTKVEIK
light: B1 light
notes: Penta-specific GNC antibody: αEGFR H4 scFv (D1), αCD3 (D2 Fab), αPD-L1 (D3), α4-1BB (D4), αCD19 (D6); also called penta-GNC antibody, H4 scFv
For B2, the Kd in the assay with His-tagged human EGFR [1] was determined as 4.3 nM. In the assay with His-tagged human EGFR [2], this molecule displayed a Kd of 4.3 nM, a koff of 0.00141 s⁻¹ and an on-rate constant (kon) of 328000 M⁻¹ s⁻¹.

B3: SI-77P1 (other)
heavy: EIVMTQSPSTLSASVGDRVIITCQASESISSWLAWYQQKPGKAPKLLIYEASKLASGVPSRFSGSGSGAEFTLTISSLQPDDFATYYCQGYFYFISRTYVNSFGQGTKLTVLGGGGSGGGGSGGGGSGGGGSEVQLVESGGGLVQPGGSLRLSCAASGFTISTNAMSWVRQAPGKGLEWVGVITGRDITYYASWAKGRFTISRDTSKNTVYLQMNSLRAEDTAVYYCARDGGSSAITSNNIWGQGTLVTVSSGGGGSGGGGSQVQLQQSGPGLVKPSETLSITCTVSGFSLTNYGVHWIRQAPGKGLEWLGVIWSGGNTDYNTPFTSRFTITKDNSKNQVYFKLRSVRADDTAIYYCARALTYYDYEFAYWGQGTLVTVSSASTKGPSVFPLAPSSKSTSGGTAALGCLVKDYFPEPVTVSWNSGALTSGVHTFPAVLQSSGLYSLSSVVTVPSSSLGTQTYICNVNHKPSNTKVDKRV[human IgG1 Fc with changes left out here]GGGGSGGGGSEVQLLESGGGLVQPGGSLRLSCAASGFSFSSGYDMCWVRQAPGKGLEWIACIAAGSAGITYDANWAKGRFTISRDNSKNTLYLQMNSLRAEDTAVYYCARSAFSFDYAMDLWGQGTLVTVSSGGGGSGGGGSGGGGSGGGGSDIQMTQSPSTLSASVGDRVTITCQASQSISSHLNWYQQKPGKAPKLLIYKASTLASGVPSRFSGSGSGTEFTLTISSLQPDDFATYYCQQGYSWGNVDNVFGGGTKVEIKGGGGSGGGGSGRSLVESGGGLVQPGGSLRLSCTASGFTISSYHMQWVRQAPGKGLEYIGTISSGGNVYYASSARGRFTISRPSSKNTVDLQMNSLRAEDTAVYYCARDSGYSDPMWGQGTLVTVSSGGGGSGGGGSGGGGSGGGGSDVVMTQSPSSVSASVGDRVTITCQASQNIRTYLSWYQQKPGKAPKLLIYAAANLASGVPSRFSGSGSGTDFTLTISDLEPGDAATYYCQSTYLGTDYVGGAFGGGTKVEIK
light: ENVLTQSPASLSASPGERVTITCSASSSVSYMHWYQQKPGQAPKLWIYDTSKLASGVPSRFSGSGSGNDHTLTISSMEPEDFATYYCFQGSVYPFTFGQGTKVTVLGGGGSGGGGSGGGGSGGGGSQVTLKESGPGLVQPGQTLSLTCAFSGFSLSTSGMGVGWIRQPPGKGLEWLAHIWWDDDKRYNPALKSRLTISKDTSKNQVYLQMNSLDAEDTAVYYCARMELWSYYFDYWGQGTLVTVSSGGGGSGGGGSEIVLTQSPSTLSVSPGERATFSCRASQSIGTNIHWYQQKPGKPPRLLIKYASESISGIPDRFSGSGSGTEFTLTISSVQSEDFAVYYCQQNNNWPTTFGPGTKLTVLRTVAAPSVFIFPPSDEQLKSGTASVVCLLNNFYPREAKVQWKVDNALQSGNSQESVTEQDSKDSTYSLSSTLTLSKADYEKHKVYACEVTHQGLSSPVTKSFNRGEC
In the case of B3, in the assay with EGFR on BxPC-3 cells, the “TDCC EC50 (pM)” value turned out to be 0.0826 pM.
